In the antibiotic and cytotoxicity screens of Wong et al. (2023):
This is one part of the list.

Columns and labels:
[1] = test system: HSkMC (human skeletal muscle cells); experiment: cytotoxicity call (relative viability < 0.9); details: 10 µM
[2] = test system: HepG2; experiment: cytotoxicity call (relative viability < 0.9); details: 10 µM
[3] = test system: S. aureus RN4220; experiment: growth inhibition call (relative growth <= 0.2); details: 50 µM

C[C@H](CO)N1C[C@H](C)[C@@H](CN(C)S(C)(=O)=O)Oc2c(NC(=O)Nc3ccc(C(F)(F)F)cc3)cccc2C1=O
cytotoxicity call [1]: inactive
cytotoxicity call [2]: inactive
growth inhibition call [3]: inactive

C[C@@H]1CN([C@@H](C)CO)C(=O)c2cccc(NC(=O)Nc3ccc(C(F)(F)F)cc3)c2O[C@@H]1CN(C)Cc1ccc(-c2ccccc2)cc1
cytotoxicity call [1]: inactive
cytotoxicity call [2]: inactive
growth inhibition call [3]: inactive

COc1ccc(CN(C)C[C@@H]2Oc3ccc(NC(=O)Nc4ccc(C(F)(F)F)cc4)cc3CC(=O)N([C@H](C)CO)C[C@@H]2C)cc1
cytotoxicity call [1]: active
cytotoxicity call [2]: active
growth inhibition call [3]: inactive

O=C(CN1CCOCC1)N[C@H]1CC[C@@H](CCn2cc(C3CC3)nn2)O[C@H]1CO
cytotoxicity call [1]: inactive
cytotoxicity call [2]: active
growth inhibition call [3]: inactive

C[C@H](CO)N1C[C@H](C)[C@H](CN(C)Cc2ccc(C(F)(F)F)cc2)Oc2ccc(NS(=O)(=O)c3ccc(Cl)cc3)cc2C1=O
cytotoxicity call [1]: active
cytotoxicity call [2]: active
growth inhibition call [3]: inactive

CC(C)NC(=O)N(C)C[C@@H]1OCc2cn(nn2)CCCC(=O)N([C@H](C)CO)C[C@@H]1C
cytotoxicity call [1]: inactive
cytotoxicity call [2]: inactive
growth inhibition call [3]: inactive

CN1C(=O)c2cc(NC(=O)C3CCCC3)ccc2OC[C@H]2O[C@@H](CC(=O)NCCc3ccncc3)CC[C@@H]21
cytotoxicity call [1]: inactive
cytotoxicity call [2]: inactive
growth inhibition call [3]: inactive

COc1ccccc1CNC(=O)C[C@@H]1C[C@@H]2c3cc(NC(=O)c4cccnc4)ccc3O[C@@H]2[C@@H](CO)O1
cytotoxicity call [1]: inactive
cytotoxicity call [2]: inactive
growth inhibition call [3]: inactive

O=[N+]([O-])c1ccc(Oc2ccc(-c3ccccc3)cc2)cc1
cytotoxicity call [1]: inactive
cytotoxicity call [2]: active
growth inhibition call [3]: inactive

CNCc1nncn1C(C)C
cytotoxicity call [1]: inactive
cytotoxicity call [2]: inactive
growth inhibition call [3]: inactive

C[C@H](CO)N1C[C@H](C)[C@@H](CN(C)Cc2ccncc2)Oc2ccc(NC(=O)c3ccncc3)cc2CC1=O
cytotoxicity call [1]: inactive
cytotoxicity call [2]: inactive
growth inhibition call [3]: inactive

Cc1ccc(S(=O)(=O)N2C[C@H](O)COC[C@H]3O[C@@H](CC(=O)NCc4ccc5c(c4)OCO5)CC[C@@H]32)cc1
cytotoxicity call [1]: inactive
cytotoxicity call [2]: inactive
growth inhibition call [3]: inactive

COc1cccc(C#Cc2ccc3c(c2)O[C@H](CN(C)C(C)=O)[C@H](C)CN([C@H](C)CO)S3(=O)=O)c1
cytotoxicity call [1]: inactive
cytotoxicity call [2]: inactive
growth inhibition call [3]: inactive

Cc1noc(C)c1NC(=O)N(C)C[C@@H]1Oc2ccc(NS(=O)(=O)c3c(C)noc3C)cc2CC(=O)N([C@@H](C)CO)C[C@H]1C
cytotoxicity call [1]: inactive
cytotoxicity call [2]: inactive
growth inhibition call [3]: inactive

C[C@@H]1CCCCO[C@@H](CN(C)C(=O)NC2CCCCC2)[C@@H](C)CN([C@H](C)CO)C(=O)c2cc(NC(=O)Cc3ccccc3)ccc2O1
cytotoxicity call [1]: inactive
cytotoxicity call [2]: inactive
growth inhibition call [3]: inactive

C[C@H]1CN([C@@H](C)CO)C(=O)c2cccc(NC(=O)Nc3ccc(F)cc3)c2O[C@H]1CN(C)Cc1ccc(C(F)(F)F)cc1
cytotoxicity call [1]: inactive
cytotoxicity call [2]: inactive
growth inhibition call [3]: inactive

C[C@H]1CCCCO[C@H](CN(C)S(=O)(=O)c2ccccc2)[C@@H](C)CN([C@@H](C)CO)C(=O)c2cc(NC(=O)CCC(F)(F)F)ccc2O1
cytotoxicity call [1]: inactive
cytotoxicity call [2]: inactive
growth inhibition call [3]: inactive

COc1ccc(S(=O)(=O)N(C)C[C@@H]2OCCCC[C@H](C)Oc3ccc(NS(=O)(=O)c4ccc(Cl)cc4)cc3C(=O)N([C@@H](C)CO)C[C@@H]2C)cc1
cytotoxicity call [1]: inactive
cytotoxicity call [2]: active
growth inhibition call [3]: inactive

COCC#Cc1ccc([C@@H]2[C@@H](CO)N3C(=O)CN(C(=O)c4ccncc4)C[C@@H]23)cc1
cytotoxicity call [1]: inactive
cytotoxicity call [2]: inactive
growth inhibition call [3]: inactive

O=C(C[C@@H]1C=C[C@H](NC(=O)CN2CCOCC2)[C@@H](CO)O1)NC1CCC1
cytotoxicity call [1]: inactive
cytotoxicity call [2]: inactive
growth inhibition call [3]: inactive

CC1CCN(S(=O)(=O)c2c[nH]cn2)CC1
cytotoxicity call [1]: inactive
cytotoxicity call [2]: inactive
growth inhibition call [3]: inactive

Cc1noc(C)c1NC(=O)Nc1cccc2c1O[C@H](CN(C)S(=O)(=O)c1cn(C)cn1)[C@H](C)CN([C@H](C)CO)C2=O
cytotoxicity call [1]: inactive
cytotoxicity call [2]: inactive
growth inhibition call [3]: inactive

O=C(O[C@@H]1O[C@@H]2COC(=O)c3cc(Oc4c(C(=O)O)cc(O)c(O)c4O)c(O)c(O)c3-c3c(cc(O)c(O)c3O)C(=O)O[C@H]2[C@H](OC(=O)c2cc(O)c(O)c(O)c2)[C@H]1OC(=O)c1cc(O)c(O)c(O)c1)c1cc(O)c(O)c(O)c1
cytotoxicity call [1]: inactive
cytotoxicity call [2]: inactive
growth inhibition call [3]: inactive

CC1OC(n2cc(F)c(=O)[nH]c2=O)C(O)C1O (stereo not given)
cytotoxicity call [1]: inactive
cytotoxicity call [2]: inactive
growth inhibition call [3]: inactive

C[C@@H]1CN([C@@H](C)CO)C(=O)c2cc(NC(=O)c3ccncc3)ccc2O[C@@H](C)CCCCO[C@H]1CN(C)Cc1ccccc1
cytotoxicity call [1]: inactive
cytotoxicity call [2]: inactive
growth inhibition call [3]: inactive
